The source of these data is the supplement of paper PMC11417369.

± gives the standard deviation of the averaged measurements. The list shows a part of the results.

The assay deals with PfAP2-LT AP2 domain (GST-tagged). The assay is described as follows: gcPBM binding intensity (ln(normalized median fluorescence intensity)); higher = stronger DNA binding. The method, boiled down: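 An Agilent 4 × 180k array of primer-extended double-stranded 36-bp intergenic genomic probes, with negative controls, was incubated for 1 h with GST-tagged P. falciparum DNA-binding domains expressed in E. coli. Alexa488 anti-GST antibody detected bound protein, scanned at 488 nm. Binding intensity is the highest Masliner-normalised natural-log median intensity across replicate spots of either probe orientation.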
On to “TTATATTATTTTTAATGTACTTTTTATGAATACAAA [XGTACX_site689]”, for which the “gcPBM binding intensity (ln)” value turned out to be 8.38 ± 0.51.
With “AACTATATCATTTATTTTATTTTTTAAATACATTTA [CACACA_negctrl_site183]” the figure was 8.63 ± 0.52; with “AGAAAAGTTTAATACAGTACATAAACAAAGTATAGG [XGTACX_site2386]”, 8.89 ± 0.56.
The result for “GTATATTTATAGCCTTTATTATATTTAATATTATTA [TGCATGCA_negctrl_site26]” reads 8.54 ± 0.46; that for “TATAATATTATATATAAACACACATACACATGTAAA [CACACA_site8631]”, 9.09 ± 0.23; that for “GTTATATTTTTTTATACACACTGGAATATATAAATA [CACACA_site4282]”, 8.64 ± 0.39.
With “TTTATTATTTTTAGGAGTACACAAAATAAAACAAAT [XGTACX_site8841]” the figure was 8.45 ± 0.43; with “TATTTACCCTCATGTTGTACTTTTCATTCATTTTAT [XGTACX_site7794]”, 9.07 ± 0.45; with “ACAAGTTTTTTTTTATCACACACAAAAAAAAAAATA [CACACA_site8377]”, 8.77 ± 0.52.
Turning to “GAAAATACGTTTAATCGTACATATATATAATATATA [XGTACX_site4243]”, the “gcPBM binding intensity (ln)” value was found to be 8.68 ± 0.43.
With “AACATACATAGACACACACACACACGCACACGCACA [CACACA_site6373]” the figure was 10.35 ± 0.071; with “ATTAATTATAATGTATGTACATAACTTTTTTATATT [XGTACX_site5784]”, 8.75 ± 0.45; with “AAAATCATTCCAAAGACATGCATTTTGCAAATAAAA [TGCATGCA_site461]”, 8.6 ± 0.45.
The result for “TATATTATATACCATTGTACATATAATATAGGTTCT [XGTACX_site7047]” reads 8.74 ± 0.37; that for “TCTATAAAGGAATATACACACATATATAAATATGTA [CACACA_site6332]”, 8.89 ± 0.35; that for “TTTTGTTATAAATAATGTACATATTTATTTAAAATT [XGTACX_site6610]”, 8.39 ± 0.39.
The result for “AAAAACAGAAATGTAACACACAAAAATTCTATTTAT [CACACA_site4026]” reads 8.97 ± 0.52.
Take “TATAAAAATGTGCACACACACACATATTTATATTTA [CACACA_site6826]”: the “gcPBM binding intensity (ln)” value is 9.79 ± 0.15.
With “AACCTTTATATGTAAAGTACAAAAAAGAGTAAAAAA [XGTACX_site5506]” the figure was 8.65 ± 0.55; with “AAAAATAAGAAAAAGTGTACTTTATTATGTATATAT [XGTACX_site2305]”, 8.61 ± 0.61; with “ATTATTTTTTTTCTTATACACACCATGCATCAAACT [CACACA_site2128]”, 9.02 ± 0.48.
The result for “ACTTGTAAGAAACACACACACACACCGATATATATA [CACACA_site4594]” reads 10.1 ± 0.31.
With “AAAAAAAAAAAAAAAACACACATTTAATGAACTTAT [CACACA_site1276]” the figure was 8.8 ± 0.49; with “ATATATAATCATATGTGTACATATATATTAATTTAA [XGTACX_site2839]”, 8.79 ± 0.34.
